Where two headings read alike, the source gives them in different places. For some of these results: The strong results were mostly taken out for another list; the other results follow. Only a part is listed here, and it is no random draw.
Columns and labels:
TBK1 = details: concentration: 1 μM,replicates: in singlicate; n = 1
TEC = details: concentration: 1 μM,replicates: in singlicate; n = 1
TESK1 = details: concentration: 1 μM,replicates: in singlicate; n = 1
TGFBR1 = details: n = 1
TGFBR2 = details: concentration: 1 μM,replicates: in singlicate; n = 1
TIE1 = details: concentration: 1 μM,replicates: in singlicate; n = 1
TIE2 = tested on: T1, TIE2; details: concentration: 1 μM,replicates: in singlicate; n = 1
T1 construct: gene TEK

TLK1 = details: concentration: 1 μM,replicates: in singlicate; n = 1
TLK2 = details: concentration: 1 μM,replicates: in singlicate; n = 1
TNIK = details: concentration: 1 μM,replicates: in singlicate; n = 1
[1] = concentration: 1 μM,replicates: in singlicate
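Further: KINOMEscan kinase panel screen.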

O=C1NC(=O)C(c2ccc(Cl)cc2)=C1Nc1ccc(O)c(Cl)c1 [SB-405367]
%Inh (TBK1): 8%
%Inh (TEC): 5%
%Inh (TESK1): 10%
%Inh (TGFBR1; [1]): 15%
%Inh (TGFBR2): 72%
%Inh (TIE1): 0%
%Inh (TIE2): 0%
%Inh (TLK1): 13%
%Inh (TLK2): 8%
%Inh (TNIK): 0%

Cc1cc(C)cc(Oc2nccc(-c3c(-c4ccc(F)cc4)ncn3C3CCNCC3)n2)c1.O=C(O)C(F)(F)F.O=C(O)C(F)(F)F.O=C(O)C(F)(F)F [SB-284851]
%Inh (TBK1): 49%
%Inh (TEC): 16%
%Inh (TESK1): 28%
%Inh (TGFBR1; [1]): 20%
%Inh (TGFBR2): 0%
%Inh (TIE1): 0%
%Inh (TIE2): 14%
%Inh (TLK1): 0%
%Inh (TLK2): 0%
%Inh (TNIK): 22%

O=C1NC(=O)C(c2ccc(Cl)cc2)=C1Nc1cccc(O)c1 [SB-333613]
%Inh (TBK1): 30%
%Inh (TEC): 1%
%Inh (TESK1): 0%
%Inh (TGFBR1; [1]): 41%
%Inh (TGFBR2): 1%
%Inh (TIE1): 10%
%Inh (TIE2): 9%
%Inh (TLK1): 23%
%Inh (TLK2): 20%
%Inh (TNIK): 38%

O=C(O)c1ccc(-c2nc(-c3ccc(F)cc3)c(-c3ccncc3)[nH]2)cc1 [SB-202620]
%Inh (TBK1): 37%
%Inh (TEC): 3%
%Inh (TESK1): 16%
%Inh (TGFBR1; 1 µM): 17%
%Inh (TGFBR2): 35%
%Inh (TIE1): 0%
%Inh (TIE2): 5%
%Inh (TLK1): 0%
%Inh (TLK2): 18%
%Inh (TNIK): 29%

CSc1ccc(NC2=C(c3cccc(Cl)c3)C(=O)NC2=O)cc1 [SB-341528]
%Inh (TBK1): 14%
%Inh (TEC): 0%
%Inh (TESK1): 0%
%Inh (TGFBR1; [1]): 3%
%Inh (TGFBR2): 0%
%Inh (TIE1): 11%
%Inh (TIE2): 0%
%Inh (TLK1): 8%
%Inh (TLK2): 0%
%Inh (TNIK): 4%

CS(=O)(=O)c1ccccc1-c1nc(-c2ccc(F)cc2)c(-c2ccncc2)[nH]1 [SB-213663]
%Inh (TBK1): 94.3%
%Inh (TEC): 0%
%Inh (TESK1): 11%
%Inh (TGFBR1; [1]): 15%
%Inh (TGFBR2): 14%
%Inh (TIE1): 3%
%Inh (TIE2): 10%
%Inh (TLK1): 13%
%Inh (TLK2): 0%
%Inh (TNIK): 48%

O=C1NC(=O)C(c2ccccc2Cl)=C1Nc1ccccc1 [SB-376715]
%Inh (TBK1): 15%
%Inh (TEC): 0%
%Inh (TESK1): 5%
%Inh (TGFBR1; [1]): 0%
%Inh (TGFBR2): 0%
%Inh (TIE1): 0%
%Inh (TIE2): 8%
%Inh (TLK1): 52%
%Inh (TLK2): 39%
%Inh (TNIK): 0%

O=C1NC(=O)C(c2ccccc2)=C1Nc1ccc(Cl)c(C(=O)O)c1 [SB-390532]
%Inh (TBK1): 8%
%Inh (TEC): 0%
%Inh (TESK1): 12%
%Inh (TGFBR1; [1]): 5%
%Inh (TGFBR2): 0%
%Inh (TIE1): 0%
%Inh (TIE2): 0%
%Inh (TLK1): 0%
%Inh (TLK2): 0%
%Inh (TNIK): 0%

O=C1NC(=O)C(c2ccc(Cl)cc2)=C1Nc1ccccc1 [SB-317661]
%Inh (TBK1): 38%
%Inh (TEC): 0%
%Inh (TESK1): 0%
%Inh (TGFBR1; [1]): 14%
%Inh (TGFBR2): 0%
%Inh (TIE1): 0%
%Inh (TIE2): 0%
%Inh (TLK1): 0%
%Inh (TLK2): 11%
%Inh (TNIK): 0%

Cc1ccc(C)c(Oc2nccc(-c3c(-c4ccc(F)cc4)ncn3C3CCNCC3)n2)c1.O=C(O)C(F)(F)F.O=C(O)C(F)(F)F.O=C(O)C(F)(F)F [SB-284852]
%Inh (TBK1): 40%
%Inh (TEC): 10%
%Inh (TESK1): 26%
%Inh (TGFBR1; [1]): 0%
%Inh (TGFBR2): 3%
%Inh (TIE1): 0%
%Inh (TIE2): 17%
%Inh (TLK1): 0%
%Inh (TLK2): 0%
%Inh (TNIK): 28%

COc1cccc(C2=C(Nc3ccc(SC)cc3)C(=O)NC2=O)c1 [SB-331032]
%Inh (TBK1): 23%
%Inh (TEC): 9%
%Inh (TESK1): 7%
%Inh (TGFBR1; [1]): 22%
%Inh (TGFBR2): 0%
%Inh (TIE1): 0%
%Inh (TIE2): 10%
%Inh (TLK1): 9%
%Inh (TLK2): 20%
%Inh (TNIK): 35%

O=C1NC(=O)c2c1c(-c1ccccc1)cc1[nH]c3ccc(O)cc3c21
%Inh (TBK1): 47%
%Inh (TEC): 0%
%Inh (TESK1): 5%
%Inh (TGFBR1; [1]): 2%
%Inh (TGFBR2): 0%
%Inh (TIE1): 13%
%Inh (TIE2): 15%
%Inh (TLK1): 35%
%Inh (TLK2): 5%
%Inh (TNIK): 89%

O=C1NC(=O)C(c2ccc(Cl)cc2)=C1Nc1cccc(C(=O)O)c1 [SB-360737]
%Inh (TBK1): 11%
%Inh (TEC): 19%
%Inh (TESK1): 27%
%Inh (TGFBR1; [1]): 20%
%Inh (TGFBR2): 0%
%Inh (TIE1): 0%
%Inh (TIE2): 7%
%Inh (TLK1): 0%
%Inh (TLK2): 0%
%Inh (TNIK): 0%

COc1ccc(C2=C(Nc3cccc(Cl)c3)C(=O)NC2=O)cc1 [SB-326892]
%Inh (TBK1): 22%
%Inh (TEC): 3%
%Inh (TESK1): 23%
%Inh (TGFBR1; [1]): 5%
%Inh (TGFBR2): 7%
%Inh (TIE1): 0%
%Inh (TIE2): 0%
%Inh (TLK1): 44%
%Inh (TLK2): 0%
%Inh (TNIK): 0%

O=C1NC(=O)C(c2ccccc2)=C1Nc1cc(Cl)c(O)c(Cl)c1 [SB-390530]
%Inh (TBK1): 0%
%Inh (TEC): 18%
%Inh (TESK1): 13%
%Inh (TGFBR1; [1]): 29%
%Inh (TGFBR2): 26%
%Inh (TIE1): 17%
%Inh (TIE2): 11%
%Inh (TLK1): 14%
%Inh (TLK2): 16%
%Inh (TNIK): 0%

O=C1NC(=O)C(c2ccccc2Cl)=C1Nc1cccc(C(=O)O)c1 [SB-390526]
%Inh (TBK1): 12%
%Inh (TEC): 0%
%Inh (TESK1): 0%
%Inh (TGFBR1; [1]): 0%
%Inh (TGFBR2): 0%
%Inh (TIE1): 0%
%Inh (TIE2): 0%
%Inh (TLK1): 6%
%Inh (TLK2): 0%
%Inh (TNIK): 0%

Reference: article PMC5540273 (PLoS ONE, 2017)
